Source: the supplement of paper PMC11417369
± gives the standard deviation of the averaged measurements. Some of the results follow.

These sequences were tested on PfAP2-LT AP2 domain (GST-tagged) (assay: gcPBM binding intensity (ln(normalized median fluorescence intensity)); higher = stronger DNA binding).
Outline: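 The binding buffer was 1× PBS containing 1% milk, 0.2 mg/ml BSA, 0.5% salmon testes DNA and 0.03% Triton X-100. In it, GST-tagged P. falciparum DNA-binding domains expressed in E. coli were applied for 1 h to an Agilent 4 × 180k array of primer-extended double-stranded 36-bp intergenic genomic probes plus negative controls. Binding intensity, read with Alexa488 anti-GST antibody and a 488 nm scan, is the highest Masliner-normalised natural-log median intensity across replicate spots of either probe orientation.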

“ATTGATAAATTAACTAGTACACATATAAATATATTA [XGTACX_site2325]” and “ATATACATATAGGATGCACACATAATTCAAATACAA [CACACA_site8120]” are within error of each other in “gcPBM binding intensity (ln)” value: 8.52 ± 0.47 for the first, 9.3 ± 0.42 for the second.

“AACAATAATTTTGAATGTACATATAAATATTTTTAT [XGTACX_site5501]” and TATAATGGTTCTGGTGTGCACCATGACAGAATCAAG are within error of each other in “gcPBM binding intensity (ln)” value: 8.61 ± 0.38 for the first, 8.82 ± 0.38 for the second.

“AAAAAAAAGAATAGCACACACACATATATAAATATA [CACACA_site630]” and “GTGAAAGGAAAAGTTGAACACACAAAGTAAACTATA [CACACA_site9178]” are within error of each other in “gcPBM binding intensity (ln)” value: 9.73 ± 0.22 for the first, 9.2 ± 0.58 for the second.

“TCTTATAAAGGTAATTGTACATATTTATAATTTCTT [XGTACX_site4847]” and “AATAATATTTAATACGCACACAATAATAATATAAAA [CACACA_site1763]” are within error of each other in “gcPBM binding intensity (ln)” value: 8.54 ± 0.47 for the first, 9.04 ± 0.46 for the second.

Going from “CACACGCACGAACACACACACATATAAATATAAATA [CACACA_site6299]” to “ATATATTATTATACATGTACATATATAGATATATAT [XGTACX_site4358]”, the “gcPBM binding intensity (ln)” value falls from 9.71 ± 0.44 to 8.9 ± 0.36.

First: AGGTAGAAATTGTTAAAAAATCATACATATTATATA [CACACA_negctrl_site622]
Second: TTTAAATACAGACATACACACATACACGCACATATA [CACACA_site6400]
The “gcPBM binding intensity (ln)” value of the first is lower: 8.5 ± 0.47 for the first, 9.49 ± 0.37 for the second.

“TATATTTTTATTGAACGTACAAAAAGTCGAAAACAG [XGTACX_site3967]” and “ATAAATACTAAAAATGAAATATAGAAAATAGCAATA [CACACA_negctrl_site501]” are within error of each other in “gcPBM binding intensity (ln)” value: 8.57 ± 0.39 for the first, 8.77 ± 0.45 for the second.

“GTTAATTCTATGAATTGTACTTAAATATAATTATAT [XGTACX_site2785]” and “ACAGTTAAAACAATAACACACAAAGAAAAAAAAAAA [CACACA_site737]” are within error of each other in “gcPBM binding intensity (ln)” value: 8.48 ± 0.35 for the first, 8.99 ± 0.5 for the second.

“CAAAATAAAAATAACACACACATTTATATAAATACA [CACACA_site4790]” and “TATAATATATTATATACACACATTATAAAATACCCA [CACACA_site4858]” are within error of each other in “gcPBM binding intensity (ln)” value: 9.32 ± 0.36 for the first, 9.01 ± 0.32 for the second.

“AAAAAAAAAAAAAAATGTACATATATATATATATTA [XGTACX_site7330]” and “CCTTGTCTTTTTTTTTTTTTTTTTTCTTCTTATTTT [GTGCAC_negctrl_site523]” are the same in “gcPBM binding intensity (ln)” value: 8.66 ± 0.42 for the first, 8.66 ± 0.52 for the second.

“ATAAAATAAGACAAAAAAAAAATATATATATATATA [TGCATGCA_negctrl_site314]” and “AGTAGATATAATATATGTACATATATATATATATAT [XGTACX_site7186]” are within error of each other in “gcPBM binding intensity (ln)” value: 9.69 ± 0.099 for the first, 9.49 ± 0.42 for the second.

“AATAAATTTAAACACACACACACATATATATATATA [CACACA_site4621]” and “TATATACATAAACACACACACACATATATATATATA [CACACA_site8707]” are within error of each other in “gcPBM binding intensity (ln)” value: 10.1 ± 0.19 for the first, 9.89 ± 0.2 for the second.

For “TGCATATACTCAAGCACACATATATATATATATATA [CACACA_site4733]”, the “gcPBM binding intensity (ln)” value was 9.76 ± 0.13.
